Test results published in PubChem BioAssay (Tox21).
“And” between values parts separate entries of the source, which are not always exact repeats. Equal values may be shown once. This list was built around the results that the source calls inconclusive (neither active nor inactive); the mix of calls is not that of the screen. For part of these data: Potencies beside an inconclusive call are fits to weak or partial responses and may not hold up. The source made the active and inactive calls. Unless noted, calls come from the whole dose curve; as a rule, active = well fitted curve in the direction sought with a large enough effect in the repeat runs; inconclusive = weak or mixed curves; inactive = no such curve, though single readings can be large; an effect the other way counts as inactive or inconclusive.

Assays:
[1] = biological target: Aryl hydrocarbon receptor (Homo sapiens) (UniProt P35869); experiment: qHTS assay to identify small molecule that activate the aryl hydrocarbon receptor (AhR) signaling pathway (AID 743085); note: nearly all actives have a fitted effect of over 15% in size; note: potency is the fitted concentration of half-maximal effect
How it was run: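 Compounds were tested in HepG2 hepatocellular carcinoma cells harbouring a stably integrated luciferase gene under control of 20 DREs. Increased reporter signal after 24 h treatment at 37C was taken as AhR activation.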

[2] = qHTS assay to identify small molecule antagonists of the sonic hedgehog signaling (Shh) pathway - cell viability counter screen (AID 1259367); note: nearly all actives have a fitted effect of over 55% in size; note: potency is the fitted concentration of half-maximal effect
How it was run: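 After a 4 hr settling period, 3T3 Gli1-Luc cells were treated with DMSO-dissolved chemicals and conditioned medium, kept 24 hr at 37C in 5% CO2, and assayed for viability by CellTiter-Fluor fluorescence following 1 hr reagent incubation.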

[3] = qHTS assay to identify small molecule antagonists of the estrogen receptor alpha (ER-alpha) signaling pathway using the BG1 cell line (AID 743080; calls by dose curve;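 note: BG1 cells stimulated with 17beta-estradiol alongside compound; nearly all actives have a fitted effect of over 25% in size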; note: potency is the fitted concentration of half-maximal effect; for activity change, negative = inhibition: % is set by controls: 0 for no effect and ±100 for the full control effect); details: BG1Luc4E2 ERE-luciferase antagonist mode, luminescence; activity change, negative = inhibition: at 70.3 µM (top of the series) unless noted
How it was run: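 Endogenous full-length ER-alpha in BG1-Luc-4E2 cells drives a stably integrated 4×ERE luciferase gene; compounds were tested against 17beta-estradiol over 21.5 h, with luminescence and multiplexed viability fluorescence recorded.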

[4] = biological target: Acetylcholinesterase (Homo sapiens) (UniProt P22303); experiment: Acetylcholinesterase (AChE) small molecule antagonists: fluorescence cell-based qHTS assay (AID 1347398; calls by dose curve; note: nearly all actives have a fitted effect of over 50% in size; note: potency is the fitted concentration of half-maximal effect; for activity change, negative = inhibition: % is set by controls: 0 for no effect and ±100 for the full control effect); details: Potency: AChE activity
How it was run: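 Thiocholine generated from acetylthiocholine by SH-SY5Y cell AChE is detected with Thiolite Green (Ex/Em 490/520 nm) after 40 min at room temperature, following 30 min compound pretreatment at 37 C.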

[5] = biological target: Peroxisome proliferator-activated receptor gamma (Homo sapiens) (UniProt P37231); experiment: qHTS assay to identify small molecule agonists of the peroxisome proliferator-activated receptor gamma (PPARg) signaling pathway (AID 743094; active = well fitted activation curve with a large enough effect in the signal ratio in the repeat runs, not every such curve was filed as active; inconclusive = weak or mixed curves, or effect the other way; inactive = no such curve, though single readings can be large or run the other way; the % refers to the signal ratio; note: % is set by controls: 0 for no effect and ±100 for the full control effect); details: HEK293H PPARg-UAS-bla, beta-lactamase FRET ratio, 17 h; activation: at 57 µM (top of the series) unless noted
How it was run: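 Stably transfected HEK293H cells (GeneBLAzer PPARg UAS-bla) were incubated with test substances for 17 h at 37C after a 5 h pre-incubation; beta-lactamase activity was then detected by FRET substrate fluorescence.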

[6] = qHTS assay to identify small molecule antagonists of the peroxisome proliferator-activated receptor gamma (PPARg) signaling pathway - cell viability counter screen (AID 743194); details: PPARg-bla HEK293H viability, CellTiter-Glo luminescence, 17 h; Potency: co-treated with 50 nM rosiglitazone unless noted; activity change, negative = cytotoxicity: at 62.6 µM (top of the series), co-treated with 50 nM rosiglitazone unless noted; note: nearly all actives have a fitted effect of over 55% in size; note: potency is the fitted concentration of half-maximal effect; for activity change, negative = cytotoxicity: % is set by controls: 0 for no effect and ±100 for the full control effect
How it was run: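 PPARg-UAS-bla HEK293H cells were plated, rested 5 h at 37 C, then treated with compounds plus rosiglitazone (50 nM final) for 17 h at 37 C; viability was then read by CellTiter-Glo luminescence after 30 min at room temperature.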

[7] = qHTS assay to identify small molecule antagonists of the retinoic acid receptor (RAR) signaling pathway (AID 1159552; note: nearly all actives have a fitted effect of over 50% in size; note: potency is the fitted concentration of half-maximal effect)
How it was run: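 Retinol at 1 uM final stimulated RARE-luciferase expression in C3RL4 cells exposed to test compounds for 6 hr at 37 C. Reduced luminescence, read 30 min after detection reagent, indicated pathway antagonism.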

[8] = Caspase-3/7 induction in HepG2 cells by small molecules, qHTS cell viability counter screen (AID 1346981); note: % is set by controls: 0 for no effect and ±100 for the full control effect; nearly all actives have a fitted effect of over 30% in size
How it was run: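 Counter screen for cytotoxicity: HepG2 exposed 16 hr to compounds, then CellTiter-Fluor viability signal (fluorescence, 1 hr reagent incubation).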

[9] = qHTS assay to identify small molecule antagonists of the estrogen related receptor (ERR) signaling pathway from Tox21 library - cell viability counter screen (AID 1224834); note: nearly all actives have a fitted effect of over 30% in size; note: potency is the fitted concentration of half-maximal effect
How it was run: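 Viability readout (CellTiter-Fluor fluorescence, 30 min at 37 C) multiplexed with the ERR assay; cells treated 17.5 h at 37 C with compounds delivered in DMSO.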

[10] = qHTS assay to identify small molecule antagonists of the estrogen related receptor signaling pathway with the pleiotropic PPARgamma coactivator (PGC) from Tox21 10K library (AID 1224841; call rule not given here; note: potency is the fitted concentration of half-maximal effect; actives are mostly falling curves and most rising ones were filed inactive; nearly all actives have a fitted effect of over 50% in size)
How it was run: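 Compound exposure ran 18 hours at 37 C in PGC/ERR cells (2,000/well) that had first rested 6 hours in a 37 C/5% CO2 incubator. Luciferase activity was then detected with One-Glo after a 30-minute room-temperature step.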

[11] = A CellTox Green Cytotoxicity Assay to monitor cytotoxicity in HepG2 cells - 40 hour (AID 1224879); note: potency is the fitted concentration of half-maximal effect; nearly all actives have a fitted effect of over 40% in size
How it was run: (§1)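 Continuous culture of HepG2 cells with a membrane-impermeant DNA dye; rising fluorescence marks dead cells. Compound exposure lasted up to 40 h at 37 C, with reads every 8 h from 0 h.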

[12] = qHTS assay to identify small molecule antagonists of the constitutive androstane receptor (CAR) signaling pathway - cell viability counter screen (AID 1224837); note: nearly all actives have a fitted effect of over 45% in size; note: potency is the fitted concentration of half-maximal effect
How it was run: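 Fluorescence from CellTiter-Fluor served as the viability signal. Human hepatoma HepG2 cells stably bearing hCAR and CYP2B6-2.2kb received compound plus CITCO (50 nM final) for 23 hr.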

[13] = qHTS assay to identify small molecule agonists of H2AX (AID 1224845; active = well fitted activation curve with a large enough effect in the signal ratio in the repeat runs, not every such curve was filed as active; inconclusive = weak or mixed curves; the % refers to the signal ratio; note: potency is the fitted concentration of half-maximal effect); details: CHO-K1 phospho-H2AX Ser139 HTRF, 3 h; activation (H2AX phosphorylation): at 154 µM (top of the series) unless noted
How it was run: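 Wild-type CHO-K1 cells plated overnight, then exposed 3 hr at 37C to compounds at 15 concentrations (0.76% DMSO). Lysed, then HTRF anti-pH2AX(S139)-cryptate/anti-H2AX-d2 detection after 24 hr at room temperature; emissions 665 and 620 nm.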

[14] = qHTS assay to identify small molecule antagonists of the androgen receptor (AR) signaling pathway - cell viability counter screen (AID 743033; note: potency is the fitted concentration of half-maximal effect; nearly all actives have a fitted effect of over 45% in size)
[15] = qHTS assay to identify small molecule antagonists of the estrogen receptor alpha (ER-alpha) signaling pathway using the BG1 cell line - cell viability counter screen (AID 743081); details: BG1Luc4E2 viability, CellTiter-Fluor, 22 h; activity change, negative = cytotoxicity: at 70.3 µM (top of the series);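 note: compound given together with 17beta-estradiol as the ER stimulus; potency is the fitted concentration of half-maximal effect; nearly all actives have a fitted effect of over 45% in size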
[16] = biological target: Thyrotropin receptor (Homo sapiens) (UniProt P16473); experiment: qHTS assay to identify small molecule antagonists of the thyroid stimulating hormone receptor (TSHR) signaling pathway (AID 1259385; calls by dose curve; note: nearly all actives have a fitted effect of over 20% in size; note: potency is the fitted concentration of half-maximal effect); details: TSHR-HEK293 cAMP HTRF, TSH-stimulated antagonist mode; activity change, negative = inhibition: at 92.4 µM (top of the series)
How it was run: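 TSHR-HEK293 cells were plated and held 18 h at 37C/5% CO2, then given compound plus Ro20-1724 and stimulated with TSH at 1.5 ng/mL final. After 30 min at room temperature, cAMP was detected with cAMP-d2/anti-cAMP-cryptate (1 h) by fluorescence.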

[17] = qHTS assay to identify small molecule agonists of the peroxisome proliferator-activated receptor delta (PPARd) signaling pathway - cell viability counter screen (AID 743211); details: PPARd-bla HEK293H viability, CellTiter-Glo luminescence, 17 h; activity change, negative = cytotoxicity: at 62.6 µM (top of the series); note: potency is the fitted concentration of half-maximal effect; nearly all actives have a fitted effect of over 55% in size
How it was run: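 Counter screen for cytotoxicity run in parallel with the PPARd reporter screen. Beta-lactamase reporter HEK293H cells exposed to compounds 17 h; ATP-based CellTiter-Glo luminescence quantified viability.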

[18] = A CellTox Green Cytotoxicity Assay to monitor cytotoxicity in HepG2 cells - 32 hour (AID 1224883); note: potency is the fitted concentration of half-maximal effect; nearly all actives have a fitted effect of over 50% in size
How it was run: as §1
Tags give direction and shape of the fitted curve or compound fluorescence and quenching.

Chain of UniProt P16473 (P16473 whole entry, looked up): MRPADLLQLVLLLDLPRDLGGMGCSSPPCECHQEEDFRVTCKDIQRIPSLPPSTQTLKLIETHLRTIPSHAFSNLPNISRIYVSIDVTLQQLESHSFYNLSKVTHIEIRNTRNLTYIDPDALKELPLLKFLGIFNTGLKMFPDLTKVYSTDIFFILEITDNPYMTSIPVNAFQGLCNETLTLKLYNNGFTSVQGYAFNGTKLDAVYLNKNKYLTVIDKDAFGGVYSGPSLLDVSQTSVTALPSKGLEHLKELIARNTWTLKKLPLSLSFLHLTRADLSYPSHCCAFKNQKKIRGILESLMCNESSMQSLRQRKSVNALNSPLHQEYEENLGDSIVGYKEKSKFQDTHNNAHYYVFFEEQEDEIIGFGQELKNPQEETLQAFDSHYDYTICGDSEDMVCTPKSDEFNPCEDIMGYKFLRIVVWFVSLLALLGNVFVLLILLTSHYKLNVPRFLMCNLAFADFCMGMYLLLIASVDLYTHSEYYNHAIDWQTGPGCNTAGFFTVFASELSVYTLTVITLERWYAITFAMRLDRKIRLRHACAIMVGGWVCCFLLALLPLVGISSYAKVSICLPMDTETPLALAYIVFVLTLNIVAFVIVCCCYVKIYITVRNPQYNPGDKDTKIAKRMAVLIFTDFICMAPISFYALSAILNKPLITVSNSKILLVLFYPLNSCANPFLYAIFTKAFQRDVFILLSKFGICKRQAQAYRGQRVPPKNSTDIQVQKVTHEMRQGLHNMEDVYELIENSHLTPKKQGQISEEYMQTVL
Chain of UniProt P22303 (P22303 whole entry, looked up): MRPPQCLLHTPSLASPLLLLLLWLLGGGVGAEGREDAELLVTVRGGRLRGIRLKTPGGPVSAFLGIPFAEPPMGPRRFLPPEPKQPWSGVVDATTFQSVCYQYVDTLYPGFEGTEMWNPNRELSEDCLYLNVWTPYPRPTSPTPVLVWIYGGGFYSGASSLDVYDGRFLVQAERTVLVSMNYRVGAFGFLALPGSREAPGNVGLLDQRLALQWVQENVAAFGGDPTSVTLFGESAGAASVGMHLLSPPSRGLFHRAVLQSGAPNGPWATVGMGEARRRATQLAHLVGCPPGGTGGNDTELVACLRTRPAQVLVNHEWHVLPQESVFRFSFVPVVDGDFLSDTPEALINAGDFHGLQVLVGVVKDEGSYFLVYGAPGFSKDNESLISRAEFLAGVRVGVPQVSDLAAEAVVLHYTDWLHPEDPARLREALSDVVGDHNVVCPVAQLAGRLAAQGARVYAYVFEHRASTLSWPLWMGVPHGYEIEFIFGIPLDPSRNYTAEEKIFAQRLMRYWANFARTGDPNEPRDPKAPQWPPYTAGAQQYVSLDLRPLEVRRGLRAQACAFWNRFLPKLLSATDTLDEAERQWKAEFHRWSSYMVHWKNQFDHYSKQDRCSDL
Chain of UniProt P35869 (P35869 whole entry, looked up): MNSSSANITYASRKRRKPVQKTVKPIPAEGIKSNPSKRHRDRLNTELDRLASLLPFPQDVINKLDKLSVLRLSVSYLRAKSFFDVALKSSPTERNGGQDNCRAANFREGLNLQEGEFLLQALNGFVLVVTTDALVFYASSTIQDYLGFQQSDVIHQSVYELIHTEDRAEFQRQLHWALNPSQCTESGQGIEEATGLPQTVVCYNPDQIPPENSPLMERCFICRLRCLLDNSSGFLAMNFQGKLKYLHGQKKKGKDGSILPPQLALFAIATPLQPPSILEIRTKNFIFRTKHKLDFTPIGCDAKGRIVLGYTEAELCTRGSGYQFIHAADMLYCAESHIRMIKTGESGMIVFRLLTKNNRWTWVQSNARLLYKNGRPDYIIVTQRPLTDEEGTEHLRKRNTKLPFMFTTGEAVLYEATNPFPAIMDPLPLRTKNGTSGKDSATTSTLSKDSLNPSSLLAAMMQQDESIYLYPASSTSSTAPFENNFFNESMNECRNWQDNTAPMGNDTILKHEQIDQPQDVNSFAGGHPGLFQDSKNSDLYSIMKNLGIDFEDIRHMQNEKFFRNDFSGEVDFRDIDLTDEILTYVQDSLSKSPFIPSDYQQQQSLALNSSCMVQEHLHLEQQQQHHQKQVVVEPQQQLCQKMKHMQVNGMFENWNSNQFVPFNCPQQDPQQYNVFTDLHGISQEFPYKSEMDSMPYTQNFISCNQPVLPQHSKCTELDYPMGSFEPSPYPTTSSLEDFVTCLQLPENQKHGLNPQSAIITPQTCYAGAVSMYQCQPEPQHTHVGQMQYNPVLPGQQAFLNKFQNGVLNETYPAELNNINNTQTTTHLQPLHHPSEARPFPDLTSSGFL
Chain of UniProt P37231 (P37231 whole entry, looked up): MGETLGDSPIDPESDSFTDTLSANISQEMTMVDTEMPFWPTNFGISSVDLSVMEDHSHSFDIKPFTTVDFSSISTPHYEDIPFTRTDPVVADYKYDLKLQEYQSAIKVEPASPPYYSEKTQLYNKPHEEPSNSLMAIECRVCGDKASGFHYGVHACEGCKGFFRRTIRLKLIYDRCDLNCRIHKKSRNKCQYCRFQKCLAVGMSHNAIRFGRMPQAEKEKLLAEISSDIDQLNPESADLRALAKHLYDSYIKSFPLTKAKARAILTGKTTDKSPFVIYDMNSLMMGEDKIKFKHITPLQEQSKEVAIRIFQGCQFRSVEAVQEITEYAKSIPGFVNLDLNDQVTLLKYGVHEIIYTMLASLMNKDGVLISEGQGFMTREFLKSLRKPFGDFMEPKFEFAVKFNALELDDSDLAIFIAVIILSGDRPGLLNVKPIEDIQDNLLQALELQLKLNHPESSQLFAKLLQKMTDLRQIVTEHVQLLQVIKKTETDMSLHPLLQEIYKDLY

SMILES: CNc1cnn(-c2cccc(C(F)(F)F)c2)c(=O)c1Cl
- Potency [1]: active: 27.3 µM
- Potency [2]: inactive

SMILES: CC(C)OC(=O)Nc1ccccc1
- Potency [3]: inconclusive: 21.7 µM [rising, partial curve, poor fit]
- Potency [4]: inactive

SMILES: O=C=NC1CCCCC1
- Potency [3]: inconclusive: 15.4 µM [rising, full curve]
- Potency [5]: inactive
- Potency [6]: inconclusive: 6.9 nM [cytotoxic, full curve, poor fit]
- Potency [7]: inactive
- Potency [8]: inactive

SMILES: Nc1ccc2ccccc2c1
- Potency [6]: inactive

SMILES: CCC1COC(Cn2cncn2)(c2ccc(Cl)cc2Cl)O1 (stereo not drawn)
- activity change, negative = inhibition [3]: inconclusive: -4.94%
- Potency [7]: inconclusive: 68.6 µM [inhibitor, single point]
- Potency [9]: inconclusive: 54.5 µM [cytotoxic, partial curve]
- Potency [10]: active: 61.1 µM
- Potency [11]: inconclusive: 43.6 µM [activator, partial curve]

SMILES: CCOP(=S)(S)OCC
- Potency [1]: inactive
- Potency [12]: inactive
- Potency [13]: inactive
- Potency [4]: active: 42.1 µM

SMILES: ClCOCCl
- Potency [9]: inactive

SMILES: O=C(N/N=C/c1ccc([N+](=O)[O-])o1)c1cc([N+](=O)[O-])cc([N+](=O)[O-])c1O
- Potency [14]: inconclusive: 12 µM [rising, full curve, poor fit]
- Potency [15]: inconclusive: 10.6 µM [cytotoxic, full curve]
- Potency [12]: active: 10.6 µM
- Potency [2]: active: 10.6 µM
- Potency [16]: inactive

SMILES: Cc1cc(-c2cc(C)c(N)c(C)c2)cc(C)c1N
- Potency [17]: inconclusive: 24.6 µM [cytotoxic, partial curve, poor fit]
- Potency [7]: inconclusive: 6.13 µM [inhibitor, single point]
- Potency [13]: inconclusive: 50.6 µM [cytotoxic, partial curve] and inconclusive: 44.2 µM [cytotoxic, partial curve]
- Potency [11]: inconclusive: 24.1 µM [activator, partial curve, poor fit]
- Potency [18]: inconclusive: 21.5 µM [activator, partial curve, poor fit]
- Potency [16]: inconclusive: 27.4 µM and inconclusive: 60 µM

SMILES: CCCCC(CC)C(=O)Cl (stereo not drawn)
- Potency [12]: inactive
- Potency [16]: inactive
